The text below walks through data of ChEMBL document CHEMBL4888484, “Replenishing the malaria drug discovery pipeline: Screening and hit evaluation of the MMV Hit Generation Library 1 (HGL1) against asexual blood stage Plasmodium falciparum ,using a nano luciferase reporter read-out” (2022).

As a reminder, the % Inhibition is the change of the read-out against control, counted positive when it falls.

SMILES strings stand for the structures. Screen size: about 150,000 compounds; about 540 (0.36%) showed an effect of 50% or more. Some of the results follow.

This assay relates to Plasmodium falciparum. The assay is described as follows: Primary screen in NF54 nanoGlo assay, in single point, at 2uM, 72h; a lower Z score goes with more inhibition. Type of assay: functional, Erythrocyte. The conditions noted are these: timepoint 72 hour.
Take `COC1(CO)CCN(C(=O)NCc2ccc(C3CC3)cc2F)CC1`: the “% Inhibition” value is given as -11% and the Z score worked out at 1.66.

In the case of `Cc1csc(CCNC(=O)Cc2c(C)[nH][nH]c2=O)n1`, the “% Inhibition” value was -5% and the Z score is 0.94.

As for `O=S(=O)(Nc1ccc(N2CCOCC2)cc1)c1ccc(-c2nnc(C3CCCC3)o2)o1`, the “% Inhibition” value was -13% and the Z score stood at 1.76.

`Cc1cnccc1N1CCn2c(Cc3cccc(F)c3)nnc2C1`: the “% Inhibition” value came out at 9% and the Z score is recorded as -1.2.

On to `CCOc1ccc(OCC(=O)N2CC(CC)N(C(C)=O)CC2CC)cc1` (configuration not stated), for which the “% Inhibition” value was -10% and the Z score was 1.09.

Regarding `O=C(NCc1cccc(C(F)(F)F)c1)c1csc(CN2CCC(Cc3ccccc3)CC2)n1`, the “% Inhibition” value is given as -12% and the Z score stood at 1.96.

In the case of `O=C(O)c1cccc(N2N=C(c3ccc4c5c(cccc35)C(=O)N(c3ccccc3)C4=O)C[C@H]2c2ccccc2)c1`, the “% Inhibition” value was -5% and the Z score is reported as 0.97.

With `COCCN1C[C@@H](c2nc(C3(NC(C)=O)CCCCC3)no2)CC1=O`, the “% Inhibition” value is 3% and the Z score is -0.35.

For `Cc1cc(S(=O)(=O)N2CCC[C@H](Cn3cncn3)C2)c(C)s1`, the “% Inhibition” value turned out to be 3% and the Z score was -0.57.

Regarding `COC(=O)c1cc(C)nc2c1c(=O)n(Cc1ccccc1Cl)c(=O)n2-c1cccc(OC)c1`, the “% Inhibition” value is recorded as -5% and the Z score was 0.67.

For `Cc1cc(NCc2cn(C)nn2)ccc1F`, the “% Inhibition” value is reported as 3% and the Z score was -0.57.

Consider `CC(C)[C@@H]1N[C@@]2(C(=O)Nc3ccc(F)cc32)[C@H]2C(=O)N(CC3CCCO3)C(=O)[C@@H]12` (some centres not stated), for which the “% Inhibition” value is listed as -6% and the Z score was determined as 0.78.

Take `Cn1c(=O)c2cn3c(c2n(C)c1=O)[C@@H](c1cccc(F)c1)Nc1ccccc1-3`: the “% Inhibition” value is reported as -9% and the Z score was 1.7.

`O=C(NCC1(CF)CCOCC1)N1CCC(CCc2ccc(F)cc2F)CC1`: the “% Inhibition” value is given as -10% and the Z score is reported as 1.56.

With `CCc1nnc(CS(=O)(=O)c2ccc3ccccc3c2)o1`, the “% Inhibition” value was 0% and the Z score worked out at 0.

Consider `Cc1cc(C)c2c(N3CCCC3)nc(C(=O)N3CCN(C4CCCCC4)CC3)nc2n1`, for which the “% Inhibition” value is reported as -5% and the Z score came out at 0.77.

Take `COc1cccc(CN2C[C@@H](F)[C@@H](OCc3nc4ccccc4o3)C2)n1`: the “% Inhibition” value turned out to be 19% and the Z score is -2.19.

As to `Cc1ccsc1CCNS(=O)(=O)c1ccc2c(c1)OC[C@@H](C(=O)N1CCCCC1)O2`, the “% Inhibition” value is reported as -21% and the Z score was determined as 3.63.

Take `Cc1cc(C)cc(NC(=O)CC(=O)N[C@H]2CCCCNC2=O)c1`: the “% Inhibition” value is 1% and the Z score is given as -0.12.

On to `O[C@H](COc1ccc2c(c1)OCO2)CN1CCCC1`, for which the “% Inhibition” value is reported as -14% and the Z score stood at 2.46.

`CC(C)Cn1c(-c2cccc(C(=O)NC3CC3)c2)nc2cccnc21`: the “% Inhibition” value is listed as -17% and the Z score is recorded as 3.07.

`Cc1ccc(CN2C[C@]34C=C[C@H](O3)C(C(=O)N3CC(O)C3)C4C2=O)cc1C` (some centres not stated): the “% Inhibition” value was -8% and the Z score is listed as 1.26.

On to `OC1CCC(NCc2ccc(-c3ccc(Cl)cc3)s2)CC1` (configuration not stated), for which the “% Inhibition” value is on record as -3% and the Z score was 0.52.

As for `Cc1cccc(CS(=O)(=O)N[C@@H](C)c2csc(C)n2)c1`, the “% Inhibition” value was -23% and the Z score was determined as 2.11.

Regarding `COc1cccc(C[C@H](C)NC(=O)N2CCC(O)(C(F)(F)F)CC2)c1`, the “% Inhibition” value is listed as -17% and the Z score is 1.72.

For `N#Cc1ccc(N2CCCN(C(=O)COc3ccccc3)CC2)cn1`, the “% Inhibition” value came out at 0% and the Z score is 0.03.

Take `COc1ccc(Nc2nc(Nc3ccc(OC)cc3)nc(N3CC[C@@H]4CCCN4C3)n2)cc1`: the “% Inhibition” value is recorded as 0% and the Z score was 0.03.

As for `O=C(NCCCN1CCOCC1)[C@@]12CCCC[C@H]1N(C1CC1)S(=O)(=O)CC2`, the “% Inhibition” value was -16% and the Z score is recorded as 1.88.

Regarding `Cn1nc(CCC(=O)Nc2ccccn2)ccc1=O`, the “% Inhibition” value is recorded as -18% and the Z score turned out to be 3.68.

In the case of `Cc1cc(C(F)(F)F)n(CCC#N)n1`, the “% Inhibition” value was -22% and the Z score is recorded as 2.56.

As for `Cn1c(-c2cccc(Cl)c2)cn2cc(-c3ccc(-c4ccccc4)cc3)nc12`, the “% Inhibition” value is given as -34% and the Z score is on record as 3.94.

For the compound `O=C1C(=O)N(C2CCCCC2)C(=O)N1Cc1nc(-c2c(F)cccc2F)cs1`, the “% Inhibition” value is -5% and the Z score came out at 0.94.

With `C=CC(C)c1noc(C2(C)CCCN2C(=O)c2ccccc2)n1` (configuration not stated), the “% Inhibition” value is on record as -20% and the Z score was 2.36.

For the compound `c1ccc2c(-c3n[nH]cc3CNC[C@@H](c3ccncc3)N3CCOCC3)cccc2c1`, the “% Inhibition” value is 0% and the Z score was -0.04.

Consider `O=C(NC(c1ccccc1)c1ccccc1)N1CCN(c2cnsn2)CC1`, for which the “% Inhibition” value is recorded as -7% and the Z score came out at 0.88.

For `CNc1cc(C(=O)N[C@H]2C[C@H](c3cc(N4CCCC4)ncn3)C2)ccn1`, the “% Inhibition” value is on record as -8% and the Z score is on record as 1.3.

For the compound `COCC(=O)N1CCC(c2c[nH]c3ccccc23)CC1`, the “% Inhibition” value was 8% and the Z score is reported as -1.11.

Regarding `O=C1C[C@@H](c2ccccc2)N(C(=O)CNC(=O)NC2CCCCC2)CCCCCCN1`, the “% Inhibition” value is recorded as -19% and the Z score was 2.67.

For `C=CCNC(=O)c1sc(=S)n(CCc2ccccc2)c1N`, the “% Inhibition” value is -6% and the Z score was found to be 0.7.

With `O=C(Nc1cc(F)ccc1F)OCC(F)(F)F`, the “% Inhibition” value was -16% and the Z score came out at 1.41.

Turning to `Cc1oc(-c2ccccc2Cl)nc1Cn1ncc2cccnc21`, the “% Inhibition” value was -8% and the Z score stood at 1.05.

For `O=C(c1ccc(CN2C(=O)CNC2=O)cc1)N1CCC(c2nc3ccccc3s2)CC1`, the “% Inhibition” value was -17% and the Z score was determined as 1.93.

As to `COCc1c(C#N)c(NCc2ccccc2)nc(C)c1NC(=O)c1ccccc1`, the “% Inhibition” value is 2% and the Z score is -0.29.

Consider `O=C(Nc1ccc(Cl)cc1Cl)c1cc(C(=O)Nc2ccc(Cl)cc2Cl)cc(C(=O)Nc2ccc(Cl)cc2Cl)c1`, for which the “% Inhibition” value came to 8% and the Z score is -0.96.

For the compound `CCCc1cc(-c2nc(-c3csc(C(C)C)n3)no2)no1`, the “% Inhibition” value is recorded as -24% and the Z score was 4.28.

In the case of `COCc1nc(C)cc(NC2CCCC2C(N)=O)n1` (configuration not stated), the “% Inhibition” value was -12% and the Z score came to 1.97.

For `CN(Cc1ccc(F)c(Cl)c1)[C@H]1COC[C@@H]1O`, the “% Inhibition” value is reported as -6% and the Z score was found to be 0.86.

With `CCC(NC(=O)c1cc(OC)c(OC(C)C)cc1Cl)[C@H]1C[C@H](O)C1` (some centres not stated), the “% Inhibition” value is given as -1% and the Z score was determined as 0.07.

Turning to `CN1[C@@H]2CCN(C(=O)Cc3ccccc3F)C[C@@]2(C(=O)N2CCCC2)CCS1(=O)=O`, the “% Inhibition” value is on record as -10% and the Z score is 1.45.

As to `CCS(=O)(=O)N1CCC[C@H](C(=O)NC2CC2)C1`, the “% Inhibition” value is given as -7% and the Z score was 0.75.

Consider `Cc1cccc(CNC(=O)C2CCN(S(=O)(=O)c3ccc4c(c3)CCCN4C(=O)C3CCC3)CC2)c1`, for which the “% Inhibition” value is listed as -18% and the Z score is given as 3.36.
